Reference: the RNAGym collection of RNA variant scans (doi:10.7554/elife.90254)
Read counts are not given, so values of variants with three or more changes are uncertain.

B1: LINE1-full (parent)
chain: UACGUAGGUGGUUUUCCCCUGAUAGUGCUAAGGGGGCCUGGAAGUUUGGACUGGGCAGAGCUCAACACAGCGUGGCAAAGUGGCUGUGGCUAGACUGCCUCUCUGGAUUCCUCGUCACUCAGCAGGGCAUCUCUGAGAGAAAUGCC

Variants of: B1
Experiment: self-cleavage, relative activity (ratio to wild type); higher = more cleavage; in vitro, sequencing; the parent is a self-cleaving ribozyme

Variant	self-cleavage
UACGUAGGAGGUUCUCCCCUAAUAGUGCUUAGGGGGCCUGGAAGUUUGGACCGGGCAGAGCUCAACACAGCGUGGCAAAGAGGCUGUGGCUAGACUGCCUCUCUGGAUUCCUCGUCACUCAGCAGGGCAUCUCUGAGAGAAAUGCC [U9A U14C G21A A30U U52C U81A]	0.77
UACGUAGGAGGUUCUCCCCCGAUAGUGCUAAGGGGGCCUGGAAGUUUGGACUGGGCAGAGCUCAACACAGCGUGGCAAAGUGGCUGUGGCUAGACUGCCUCUCUGGAUUCCUCGUCACUCAGUAGGGCAUCUCUGAGAGAAAUGCC [U9A U14C U20C C123U]	0.96
UACGUAGGAGGUUCUCCCCUGAUAGUGCUAAGGGGGCCCGGAAGUUUGGACUGGGCAGAGCUCAACACAGCGUGGCAAAGUGGCAGUGGCUAGACUGCCUCUCUGGAUUCCUCGUCACUCAGCAGGGCAUCUCUGAGAGAAAUGCC [U9A U14C U39C U85A]	0.23
UACGUAGGAGGUUCUCCCCUGAUAGUGCUAAGGGGGCCUGGAAGCUUGGACUGGGCAGAGCUCAACACAGCGUGGCAAAGAGGCUGUGGCUAGACGGCCUCUCUGGAUUCCUCGUCACUCAGCUGGGCAUCACUGAGAGUAAUGCC [U9A U14C U45C U81A U96G A124U U132A A140U]	0.55
UACGUAGGAGGUUCUCCCCUGAUAGUGCUAAGGGGGCCUGGAAGUUUGGACUGGGCAGAGCUCAACACAGCGUGGCAAAGAGGCUGCGGCUAGACUGCCUCUCUGGAUUCCUCGACACUCAGCAGGGCAUCUCCGAGAGAAAUGCC [U9A U14C U81A U87C U115A U134C]	0.66
UACGUAGGAGGUUCUCCCCUGAUAGUGCUAAGGGGGCCUGGAAGUUUGGACUGGGCAGAGCUCAACACAGCGUGGCAAAGUGGCCGUGGCUAGACUGCCUCUCUGGAUUCCUCGUCACUCAGCAGGGCAUCUCUGAGAGAAAUGCC [U9A U14C U85C]	0.53
UACGUAGGAGGUUCUCCCCUGAUAGUGCUAAGGGGGCCUGGAAGUUUGGACUGGGCAGAGCUCAACACAGCGUGGCAAAGUGGCCGUGGCUAGACUGCCUCUCCGGAUUCCUCGUCACUCAGCAGGGCAUCUCUGAGAGUAAUGCC [U9A U14C U85C U104C A140U]	0.54
UACGUAGGAGGUUUACCCCUGAUAGUGCUAAGGGGGCCUGGAAGUUUGGACUGGGCUGAGCUCAACACAGCGUGGCAAAGUGGCUGUGGCUAGACUGCCUCUCUGGAUUCCUCGUCACUCAGCAGGGCAUCUCAGAGAGAGAUGCC [U9A U15A A57U U134A A141G]	0.5
UACGUAGGAGGUUUCCCCCUGAUAGUGCUAAGGGGGCCUGGAAGUUUGGACUGGGCAGAGCUCAACACAGCGUGGCGAAGUGGCUGUGGCAAGACUGCCUCUCUGGAUUCCUCGUCACUCAGCAGGGCGUCUCUGAGAGAAACGCC [U9A U15C A77G U91A A129G U143C]	1.84
UACGUAGGAGGUUUCCCCCUGAUAGUGCUAAGGGGGCCUGGAAGUUUGGACUGGGCAGAGCUCAACACAGCGUGGCAAAGUGGCUGUGGCUAGACUGCCUCUCUGGAUUCCUCGUCACUCAGCAGGGCAUCUCUGAGAGAGAUGCC [U9A U15C A141G]	0.86
UACGUAGGAGGUUUCCCCCUGAUAGUGCUAAGGGGGCCUGGAAGUUUGGACCGGGCAGAGCUCAACACAGCGUGGCAAAGUGGCUGUGGCUAGACUGCCUCUCUGGAUUCCUCGACACUCAGCAGGGCAUCUCUGAGAGAAAUGCC [U9A U15C U52C U115A]	1.41
UACGUAGGAGGUUUCCCCCUGAUAGUGCUAAGGGGGCCUGGAAGUUUGGACUGGGCAGAGCUCAACACAGCGUGGCAAAGUGGCUGUGGCUAGACUGCCUCUCUGGAUUCCUCGUCACUCAGCAGGGCAUCUCUGAGAGAAAAGCC [U9A U15C U143A]	0.66
UACGUAGGAGGUUUUCCCCAGAUAGUGCUAGGGGGGCCUGGAAGUUUGGACUGGGCAGAGCUCAACACAGCGAGGCAAAGUGGCUGUGGCUAGACUGCCUCUCUGGAUUCCUCGUCACUCAGCAGGGCAUCUCUGAGAGAAAUGCC [U9A U20A A31G U73A]	0.99
UACGUAGGAGGUUUUCCCCAGAUAGUGCUAAGGGGGCCUGGAAGCUUGGACUGGGCAGAGCUCAACACAGCGUGGCAAAGUGGCUGUGGCUAGACUGCCUCUCUGGAUUCCUCGUCACUCAGCAGGGCAUCUCUGAGAGAAAUGCC [U9A U20A U45C]	1.24
UACGUAGGAGGUUUUCCCCCGAUAGUGCUAAGGGGGCCUGGAAGUUUGGACUGGGCGGAGCUCAACACAGCGUGGCAAAGUGGCAGUGGCUAGACUGCCUCUCUGGAUUCCUCGUCACUCAGCAGGGCAUCUCUGAGAGAAAUGCC [U9A U20C A57G U85A]	0.05
UACGUAGGAGGUUUUCCCCCGAUAGUGCUAAGGGGGCCUGGAAGUUUGGACUGGGCAGAGCUCAGCACAGCGUGGCAAAGUGGCUGUGGCUAGACUGCCUCUCUGGAUUCCUCGUCACUCAGCAGGGCAUCUCUGAGAGAAAUGCC [U9A U20C A65G]	0.37
UACGUAGGAGGUUUUCCCCCGAUAGUGCUAAGGGGGCCCGGAAGUUUGGACUGGGCAGAGCUCAACACAGCGUGGCAAAGUGGCUGUGGCUAGACUGCCUCUCUGGAUUCCUCGACACCCAGCAGGGCAUCUCUGAGAGAAAUGCC [U9A U20C U39C U115A U119C]	0.95
UACGUAGGAGGUUUUCCCCCGAUAGUGCUAAGGGGGCCUGGAAGUUUGGACUGGGCAGAGCUCAACACAGCGAGGCAAAGUGGCUGUGGCUAGACUGCCUCUCUGGAUUCCUCGUCACUCAGCAGGGCACCUCUGAGAGAAAUGCC [U9A U20C U73A U130C]	1.61
UACGUAGGAGGUUUUCCCCCGAUAGUGCUAAGGGGGCCUGGAAGUUUGGACUGGGCAGAGCUCAACACAGCGUGGCAAAGUGGCUGUGGCCAGACUGCCUCUCUGGAUUCCUCGUCACUCAGCAGGGCAUCUCUGAGAGAAAUGCC [U9A U20C U91C]	0.76
UACGUAGGAGGUUUUCCCCUGAAAGUGCUAAGGGGGCCUGGAAGUUUGGACUGGGCAGAGCUCAACACAGCGUAGCAAAGUGGCUGUGGCUAGACUGCCUCUCUGGAUUCCUCGUCACUCAGCGGGGCACCUCCGAGAGAAAUGCC [U9A U23A G74A A124G U130C U134C]	0.99

Variant	self-cleavage
UACGUAGGAGGUUUUCCCCUGACAGUGCUGAGGGGGACUGGAAGUUUGGACUGGGCAGAGCUCAACACAGCGUGGCAAAGUGGCUGUGGCUAGACUGCCUCUCUGGAUUCCUCGUCACUCAGCAGGGCAUCUCUGAGAGGAAUGCC [U9A U23C A30G C37A A140G]	0.81
UACGUAGGAGGUUUUCCCCUGACAGUGCCAAGGGGGCCUGGAAGUUUGGACUGGGCAGAGCUCAACACAGCGUGGCAAAGUGGCUGUGGCUAGACUGCCUCUCUGGAUACCUCGUCACUCAGCAGGGCAUCUCUGAGAGAAAUGCC [U9A U23C U29C U109A]	2.18
UACGUAGGAGGUUUUCCCCUGAUAGCGCUAAGGGGGCCUGGAAGUUUGGACUGGGCGGAGCUCAACACAGCGUGGCAAAGUGACUGUGGCUAGACUGCCUCUCUGGAUUCCUCGUCACCCAGCAGGGCAUCUCUGAGAGAAAUGCC [U9A U26C A57G G83A U119C]	0.31
UACGUAGGAGGUUUUCCCCUGAUAGCGCUAAGGGGGCCUGGAAGUUUGGACUGGGCAGAGCUCAACGCAGCGUGGCAAAGUGGCUGAGGCUAGACUGCCUCUCUGGAUUCCUCGUCACUCAACAGGGCAUCUCUGAGAGAAACGCC [U9A U26C A67G U87A G122A U143C]	0.25
UACGUAGGAGGUUUUCCCCUGAUAGCGCUAAGGGGGCCUGGAAGUUUGGACUGGGCAGAGCUCAACACAGCGUGGCAGAGUGGCUGUGGCUAGACUGCCUCUCUGGAUUCCUCGUCACUCAGCAGGGCAUCUCUGAGAGAAAUGCC [U9A U26C A78G]	1.06
UACGUAGGAGGUUUUCCCCUGAUAGCGCUAAGGGGGCCUGGAAGUCUGGACUGGGCAGAGAUCAACACAGCGUGGCAAAGUGGCUGUGGCUAGACUGCCUCUCUGGAUUCCUCGUCACUCAGCAGGGCAUCUCUGAGAGAGAUGCC [U9A U26C U46C C61A A141G]	0.11
UACGUAGGAGGUUUUCCCCUGAUAGCGCUAAGGGGGCCUGGAAGUUCGGACUGGGCAGAGCUUAACACAGCGUGGCAAAGUGGCUGUGGCUAGACUGCCUCUCUGGAUUCCUCGUCGCUCAGCAGGGCAUCUCUGAGAGAAAUGCC [U9A U26C U47C C63U A117G]	0.31
UACGUAGGAGGUUUUCCCCUGAUAGUGCAAAGGGGGCCUGGAAGUUUGGACUGGGCAGAGCUCAACACAGCGUGGCAAAGUGGCUGUGGCUAGACUACCUCUCUGGAUUCCUCGUCACUCAGCAGGGCAUCUCUGAGAGAAAUGCC [U9A U29A G97A]	0.2
UACGUAGGAGGUUUUCCCCUGAUAGUGCAAAGGGGGCCUGGAAGUAUGGACUGGGCAGAGCUCAACACAGCGUGGCUAGGUGGCUGUGGCUAGACUACCUCUCUGGGUUCCUCGUCACUCAGCAGGGCAUCUCUGAGAGAAAUGCC [U9A U29A U46A A77U A79G G97A A107G]	0.04
UACGUAGGAGGUUUUCCCCUGAUAGUGCCAAGGGGGCCUGGAAGUUUGGACUGGGCAGAGCCCAACACUGCGUGGCAAAGUGGCUGUGGCUAGACUGCCUCCCUGGAUUCCUCGUCACUCAGCAGGGCAUCUCGGGGAGAAAUGCC [U9A U29C U62C A69U U102C U134G A136G]	0
UACGUAGGAGGUUUUCCCCUGAUAGUGCUAAGGGGGCCUGGAAGCUUGGACUGGGCAGAGCUCAACACAGCGUUGCAAAGUGGCUGUGGCUAGACUGCCUCUCUGGAUUCCUCGUCGCUCAGCAGGGCAUCUCUGAGAGAAAUGCC [U9A U45C G74U A117G]	0.84
UACGUAGGAGGUUUUCCCCUGAUAGUGCUAAGGGGGCCUGGAAGCUUGGACUGGGCAGAGCUCAACACAGCGUGGCAAAGUGGCUGUGGCUAGACUGCCUCUCUGGAUUCCUCGUCACUCAGCAGGGCAUCUCUGAGAGAAAAGCC [U9A U45C U143A]	0.67
UACGUAGGAGGUUUUCCCCUGAUAGUGCUAAGGGGGCCUGGAAGGUUGGACUGGGCAGAGCCCAACACAGCGUGGCAAAGUGGCUGUGGCUAGACUGCCUCUCUGGAUUCCUCGUCACUCAGCAGGGCAUCUCUGAGAGAAUUGCC [U9A U45G U62C A142U]	0.11
UACGUAGGAGGUUUUCCCCUGAUAGUGCUAAGGGGGCCUGGAAGUAUGGACUGGGCAGAGCUCAACACAGCGUGGCAAAGUGGCUGUGGCUAGACUGCCUCUCUGGAUCCCUCGUCACACAGCAGGACAUCUCUGAGAGAAAUGCC [U9A U46A U109C U119A G127A]	1.19
UACGUAGGAGGUUUUCCCCUGAUAGUGCUAAGGGGGCCUGGAAGUCUGGACUGGGCAGAGCUCAUCACAGCGUGGCAAAGUGGCUGUGGCUAGACUGCAUCUCUGGAUUCCUCGUCACUCAGCAGGGCAUCUCUGGGAGAAAUGCC [U9A U46C A65U C99A A136G]	0.11
UACGUAGGAGGUUUUCCCCUGAUAGUGCUAAGGGGGCCUGGAAGUCUGGACUGGGCAGAGCUCAACACAGCGUGGCUAAGUGGCUGUGGCUAGACUGCCUCUCUGGAUUCCUCGUCACUCAGCGGGGCAUCUCUGAGAGAAAUGCC [U9A U46C A77U A124G]	0.96
UACGUAGGAGGUUUUCCCCUGAUAGUGCUAAGGGGGCCUGGAAGUCUGGACUGGGCAGAGCUCAACACAGCGCGGCAAAGUGGCUGUGGCUAGGCUGCCUCUCUGGAUUCCUCGUCACUCAGCAGGUCAUCUCUGAGAGAAAUGCC [U9A U46C U73C A94G G127U]	0
UACGUAGGAGGUUUUCCCCUGAUAGUGCUAAGGGGGCCUGGAAGUGUGGUCUGGGCAGUGCUCAACACAGCGUGGCAAAGUGGCUGUGGCUAGACUGCCUCUCUGGAUUCCUCGUCACUCAGCAGGGCAUCUCAGAGAGAAAUGCC [U9A U46G A50U A59U U134A]	0.44
UACGUAGGAGGUUUUCCCCUGAUAGUGCUAAGGGGGCCUGGAAGUUAGGACUGGGCAGAGCUCAACACAGCGUGGCAAAGUGGCUGUGGCUAGACUGCCUCUCUGGAUUCCUCGUCACUCAGCAGGGCGUCUCUGAGAGAAAUGCC [U9A U47A A129G]	0.41
